About 4,300 (8.3%) of roughly 52,000 compounds were called active. No stated cut-off is given here; in the data, active means survival mostly below about 52% (no sharp cut-off); inactive means mostly above about 56%. This is one part of the list.
What follows are compounds tested on DeltatarO mutant (assay: growth inhibition of S. aureus wild type versus tarO mutant, primary screen, teichoic acid synthesis inhibitors, RN4220, OD600 (AID 463173)). Settings: OD600, 18 h, stronger effect = lower value, screened at 18.75 µg/mL (by protocol).

| Structure (SMILES) | survival |
| --- | --- |
| COc1cccc(Nc2nc3c(S(=O)(=O)c4cc(C)ccc4C)nnn3c3ccsc23)c1 | inactive: 46% |
| CC(=O)Nc1c(C)nn(-c2ccccc2)c1N1CCC(C(=O)Nc2ccccc2C(F)(F)F)CC1 | inactive: 84% |
| O=C(CN1c2ccc(Br)cc2-c2ccccc2S1(=O)=O)N1CCCCC1 | inactive: 91% |
| Cc1ccc(NC(=O)N2CCN(Cc3nc4ccc(C)cc4o3)CC2)cc1 | inactive: 91% |
| Cc1cc(=O)c2cc(C(=O)Nc3ccc(F)cc3)ccc2[nH]1 | inactive: 83% |
| CCOC(=O)N1CCN(S(=O)(=O)N2CCCC(C(=O)NCc3cc(Br)ccc3OC)C2)CC1 (stereo unspecified) | inactive: 74% |
| CCN1CCc2nc3sc(C(=O)Nc4ccccc4OC(F)(F)F)c(N)c3cc2C1 | active: 44% |
| Cc1cc(C)c(NC(=O)CSC2=Nc3ccccc3C3=NC(CC(=O)NCc4cccs4)C(=O)N23)c(C)c1 (stereo unspecified) | inactive: 79% |
| Cc1ccc(CNS(=O)(=O)c2ccc3[nH]c4c(c3c2)CCCCC4)cc1 | inactive: 75% |
| COCCCn1c(=O)c2sccc2n2c(CCCC(=O)Nc3cccc(OC)c3)nnc12 | inactive: 86% |
| COc1ccc(CNC(=O)c2cc3cccc4c3n2CC(C)S4)cc1OC (stereo unspecified) | inactive: 84% |
| COCCCn1c(SCC(=O)Nc2ccc(F)cc2)nc2c(sc3ccccc32)c1=O | inactive: 81% |
| COc1ccc(Cl)cc1NC(=O)Cn1nc(C(F)(F)F)c2c1CCCC2 | active: 35% |
| O=C(c1ccccc1Cl)N1CCC(c2nc3ccccc3s2)CC1 | inactive: 57% |
| CCN(CC)S(=O)(=O)c1ccc(C(=O)NC2CC(=O)N(c3ccc(OC)c(OC)c3)C2)cc1 (stereo unspecified) | inactive: 70% |
| Cc1ccc(N(CC(=O)NCCSc2ccccc2)S(=O)(=O)c2ccc(F)cc2)cc1 | inactive: 109% |
| CC(=O)c1ccc(NC(=O)c2cc3sccc3n2Cc2ccc(Cl)cc2)cc1 | inactive: 90% |
| O=C(COc1ccc(Cl)cc1)NCC(c1ccco1)S(=O)(=O)c1ccc(F)cc1 (stereo unspecified) | inactive: 87% |
| CCOCCCNC(=O)C(=O)Nc1c2c(nn1-c1ccccc1)CSC2 | inactive: 91% |

| Structure (SMILES) | survival |
| --- | --- |
| CC1CCc2c(sc3nnn(CC(=O)Nc4c(C(C)C)cccc4C(C)C)c(=O)c23)C1 (stereo unspecified) | inactive: 102% |
| CCC(C)c1ccccc1OCC(=O)Nc1ccc(S(=O)(=O)Nc2cc(C)on2)cc1 (stereo unspecified) | inactive: 80% |
| COc1cc(NS(=O)(=O)c2c(C(=O)N3CCCCC3)c(C)n(C)c2C)cc(OC)c1OC | inactive: 74% |
| COc1ccc(-c2cc3ncc(C(=O)c4cc([N+](=O)[O-])ccc4O)cn3n2)cc1 | active: 33% |
| O=C(Nc1cccc2cccnc12)c1ccc(-c2cccc(Cl)c2)o1 | active: 3% |
| CCCn1c2ccccc2c2cnn(CC(=O)NCCCN(CC)c3ccccc3)c(=O)c21 | inactive: 81% |
| CCOc1cc(S(=O)(=O)NCCc2ccc(OC)c(OC)c2)c(OCC)cc1-n1cnnn1 | inactive: 96% |
| Cc1ccc(Cl)cc1-n1ncc2c(Nc3ccc4c(c3)OCCO4)ncnc21 | inactive: 82% |
| O=C(c1ccc2c(c1)N(Cc1c(F)cccc1Cl)C(=O)c1ccccc1S2)N1CCCC1 | inactive: 74% |
| COc1cc(NC(=O)CN2C(=O)COc3ccc(S(=O)(=O)NC4CCCC4)cc32)cc(OC)c1 | inactive: 124% |
| CC(=O)N1CCCC1c1nc2ccccc2n1Cc1ccc(F)cc1 (stereo unspecified) | inactive: 85% |
| Fc1ccc(-c2csc(=Nc3cccc(C(F)(F)F)c3)n2Cc2ccc3c(c2)OCO3)cc1 | inactive: 81% |
| CC(=O)Nc1ccc(S(=O)(=O)N2CCN(C(=O)N3CCCC3)CC2)cc1 | inactive: 85% |
| COc1ccc(-c2nc(CCNC(=O)c3ccccc3)cs2)cc1OC | inactive: 130% |
| Fc1ccc(-c2cc(-c3ccccc3)c3c(n2)-c2ccccc2OC3)cc1 | inactive: 83% |
| Cc1cccc(C)c1NC(=O)CCCn1c(=O)c2cccn2c2ccccc21 | inactive: 55% |
| O=C1C(=O)N(C2CCNCC2)CCN1Cc1ccccc1 | inactive: 81% |
| CCOC(=O)c1c(S(=O)(=O)NCC(=O)Nc2ccc(C(C)=O)cc2)c(C)n(C)c1C | inactive: 80% |
| O=C(Nc1sc2c(c1C(=O)NCC1CCCO1)CCC2)c1cc(=O)c2cc(Cl)ccc2o1 (stereo unspecified) | active: 43% |

| Structure (SMILES) | survival |
| --- | --- |
| COc1cccc(NC(=O)CCCn2c(=O)c3cccn3c3cccnc32)c1 | inactive: 88% |
| Cc1ccc(CCNC(=O)c2ccc3c(c2)N(Cc2ccccc2F)C(=O)c2ccccc2S3=O)cc1 (stereo unspecified) | inactive: 69% |
| Cn1nnnc1SCCCNCc1cc(Br)ccc1OCc1ccccc1F | inactive: 63% |
| CCOC(=O)c1cc(-c2ccccc2)n(CC(=O)Nc2ccccc2OCC)c1C | inactive: 83% |
| Cn1ncc2c(Nc3cccc(C#N)c3)ncnc21 | inactive: 86% |
| CCc1cccc(C)c1NC(=O)CSc1n[nH]c(-c2ccccc2)n1 | inactive: 89% |
| COc1cc(NC(=O)CCN2CCN(c3ccccc3)CC2)cc(OC)c1 | inactive: 150% |
| Cc1cc(C)cc(NC(=O)C(=O)NCC(c2cccnc2)N2CCOCC2)c1 (stereo unspecified) | inactive: 107% |
| Cc1ccc(Cl)cc1NC(=O)CCn1cnc2ccccc2c1=O | inactive: 81% |
| CCOC(=O)c1ccc(NC(=O)C2=C(C)C(=O)OC23CCN(C(C)=O)CC3)cc1 | inactive: 80% |
| CCOC(=O)c1cccc(NC(=O)c2cc(C)nc3c2c(C)nn3-c2ccc(C)cc2)c1 | inactive: 39% |
| COc1cc(Nc2nc3ccc(Cl)cc3nc2-n2nc(C)cc2C)cc(OC)c1 | inactive: 66% |
| O=C(O)c1c2c(nc3ccccc13)-c1ccccc1CC2 | inactive: 85% |
| O=C(CN1C(=O)COc2ccc(S(=O)(=O)NC3CCCC3)cc21)NCc1ccccc1Cl | inactive: 80% |
| O=C(O)C(F)(F)C12OC3C4C5CC(C6C5C3C61)C42 (stereo unspecified) | inactive: 72% |
| CC1CN(C(=O)N2CCC(C(=O)NCc3ccccc3F)CC2)c2cc(Cl)ccc2O1 (stereo unspecified) | inactive: 60% |
| COc1ccccc1N1CCN(C(=O)Cn2c(=O)nc(-c3ccccc3)c3ccccc32)CC1 | inactive: 94% |
| CCOc1ccc(NC(=O)C(C)n2c(=O)cc(-c3ccccc3)c3c(C)nn(C)c32)cc1 (stereo unspecified) | inactive: 96% |

— PubChem BioAssay AID463173 (ICCB-Longwood Screening Facility, Harvard Medical School, 2010)
